Measured values taken from PubChem BioAssay AID194 (DTP/NCI, 2004).
Inconclusive results are not listed. A number of entries come with more than one value. The other results are left out here. The source may hold further records. The records of an entry differ for a reason that is not stated; dose, time, organism, isomer or construct need not be as stated for each record. *1 amine or outer side, *2 acyl side, *3 side chain or, on linkers, in order; H or OH if unused. Where a SMILES comes first, the peptide text is derived from it. Bridges are numbered along the chain shown (N, C = ends). Roman numbers before positions name the chains, in order. [ ]: non-standard residue; d: D form. Actinocin(9to1) = Cc1c2oc3c(C)ccc(C(=O)[*:1])c3nc-2c(C(=O)[*:2])c(N)c1=O; aThr = C[C@H](O)[C@H](N)C(=O)O; NMeV = CN[C@H](C(=O)O)C(C)C; Sar = CNCC(=O)O

Test system: BDF1 mice, B16 melanoma s.c., survival/tumor T/C
Assay: NCI In Vivo Anticancer Drug Screen. Data for tumor model B16 Melanoma (subcutaneous) in B6D2F1 (BDF1) mice
Protocol: The antitumor activity of compounds was measured in mice bearing transplantable tumors. Survival or tumor size were measured and the results are expressed as the measurement made in the treated group (T) divided by the measurement made in the vehicle treated control group (C). The tumor model used in this assay is B16 Melanoma (subcutaneous) in B6D2F1 (BDF1) mice

[1] = endpoint: median tumor weight (est.), dose: 25.0 mg/kg/injection, schedule: Q01DX009 (ip), vehicle: Klucel (hydroxypropylcellulose) (HPC), higher = larger tumour
[2] = endpoint: median tumor weight (est.), dose: 25.0 mg/kg/injection, schedule: Q01DX009 (ip), vehicle: saline, higher = larger tumour
[3] = endpoint: median tumor weight (est.), dose: 1.0 mg/kg/injection, schedule: Q01DX009 (ip), vehicle: saline, higher = larger tumour
[4] = endpoint: median tumor weight (est.), dose: 2.0 mg/kg/injection, schedule: Q01DX009 (ip), vehicle: saline, higher = larger tumour
[5] = endpoint: median tumor weight (est.), dose: 4.0 mg/kg/injection, schedule: Q01DX009 (ip), vehicle: Klucel (hydroxypropylcellulose) (HPC), higher = larger tumour
[6] = endpoint: median tumor weight (est.), dose: 0.25 mg/kg/injection, schedule: Q01DX009 (ip), vehicle: saline, higher = larger tumour
[7] = endpoint: median tumor weight (est.), dose: 0.5 mg/kg/injection, schedule: Q01DX009 (ip), vehicle: saline, higher = larger tumour

CN1c2c(nc(N)[nH]c2=O)NCC1CCNc1ccc(C(=O)NC(CCC(=O)O)C(=O)O)cc1 (configuration not stated)
T/C (endpoint: median survival time, dose: 260.0 mg/kg/injection, schedule: Q01DX009 (ip), vehicle: saline, higher = longer survival): 101 % of control and 167 % of control | T/C (endpoint: median survival time, dose: 400.0 mg/kg/injection, schedule: Q01DX009 (ip), vehicle: saline, higher = longer survival): 98 % of control and 154 % of control | T/C (endpoint: median survival time, dose: 600.0 mg/kg/injection, schedule: Q01DX009 (ip), vehicle: saline, higher = longer survival): 110 % of control and 177 % of control

Cc1c2oc3c(C)ccc(C(=O)N[C@@H]4C(=O)N[C@H](C(C)C)C(=O)N5CCC[C@H]5C(=O)N(C)CC(=O)N(C)[C@@H](C(C)C)C(=O)O[C@H]4C)c3nc-2c(C(=O)N[C@@H]2C(=O)N[C@H](C(C)C)C(=O)N3CCC[C@H]3C(=O)N(C)CC(=O)N(C)[C@@H](C(C)C)C(=O)O[C@H]2C)c(N)c1=O (I: [aThr][dV]P[Sar][NMeV] / II: [aThr][dV]P[Sar][NMeV]; ester I:1-I:C, II:1-II:C; linker I:N-II:N via Actinocin(9to1))
T/C (endpoint: median tumor weight (est.), dose: 13.0 micrograms/kg/injection, schedule: Q01DX009 (ip), vehicle: saline, higher = larger tumour): 110 % of control, 113 % of control, 587 % of control | T/C (endpoint: median tumor weight (est.), dose: 25.0 micrograms/kg/injection, schedule: Q01DX009 (ip), vehicle: saline, higher = larger tumour): 80 % of control, 121 % of control, 532 % of control | T/C (endpoint: median tumor weight (est.), dose: 50.0 micrograms/kg/injection, schedule: Q01DX009 (ip), vehicle: saline, higher = larger tumour): 38 % of control, 78 % of control, 330 % of control

Nc1n[nH]c(N)n1
T/C (endpoint: median tumor weight (est.), dose: 100.0 mg/kg/injection, schedule: Q01DX009 (ip), vehicle: saline, higher = larger tumour): 93 % of control and 464 % of control | T/C (endpoint: median tumor weight (est.), dose: 200.0 mg/kg/injection, schedule: Q01DX009 (ip), vehicle: saline, higher = larger tumour): 103 % of control and 758 % of control | T/C (endpoint: median tumor weight (est.), dose: 400.0 mg/kg/injection, schedule: Q01DX009 (ip), vehicle: saline, higher = larger tumour): 100 % of control and 592 % of control | T/C (endpoint: median tumor weight (est.), dose: 800.0 mg/kg/injection, schedule: Q01DX009 (ip), vehicle: saline, higher = larger tumour): 74 % of control and 737 % of control

S=c1nc[nH]c2nc[nH]c12
T/C [1]: 89 % of control and 400 % of control | T/C (endpoint: median tumor weight (est.), dose: 50.0 mg/kg/injection, schedule: Q01DX009 (ip), vehicle: Klucel (hydroxypropylcellulose) (HPC), higher = larger tumour): 82 % of control and 158 % of control

O=c1[nH]c(=O)n(C2CC(O)C(CO)O2)cc1F (configuration not stated)
T/C [2]: 66 % of control and 451 % of control

O=P1(N(CCCl)CCCl)NCCCO1 (configuration not stated)
T/C [2]: 50 % of control, 72 % of control, 93 % of control | T/C (endpoint: median tumor weight (est.), dose: 150.0 mg/kg/injection, schedule: Q01DX001 (ip), vehicle: saline, higher = larger tumour): 17 % of control, 36 % of control, 92 % of control | T/C (endpoint: median tumor weight (est.), dose: 300.0 mg/kg/injection, schedule: Q01DX001 (ip), vehicle: saline, higher = larger tumour): 4 % of control, 17 % of control, 60 % of control

COc1cccc2c1C(=O)c1c(O)c3c(c(O)c1C2=O)C[C@@](O)(C(C)=O)C[C@@H]3OC1CC(N)C(O)C(C)O1 (some centres not stated)
T/C [3]: 86 % of control, 89 % of control, 113 % of control | T/C [4]: 58 % of control and 106 % of control

O=c1[nH]cc(F)c(=O)[nH]1
T/C (endpoint: median tumor weight (est.), dose: 20.0 mg/kg/injection, schedule: Q01DX009 (ip), vehicle: Klucel (hydroxypropylcellulose) (HPC), higher = larger tumour): 25 % of control and 163 % of control

O=C1C(=O)c2ccccc2C(O)=C1CC=C(Cl)Cl
T/C [1]: 48 % of control, 67 % of control, 83 % of control

CC1CCC(NC(=O)N(CCCl)N=O)CC1 (configuration not stated)
T/C (endpoint: median tumor weight (est.), dose: 2.0 mg/kg/injection, schedule: Q01DX009 (ip), vehicle: Klucel (hydroxypropylcellulose) (HPC), higher = larger tumour): 30 % of control and 106 % of control | T/C [5]: 12 % of control and 57 % of control

CN(C)/N=N/c1nc[nH]c1C(N)=O
T/C (endpoint: median tumor weight (est.), dose: 37.5 mg/kg/injection, schedule: Q01DX009 (ip), vehicle: Klucel (hydroxypropylcellulose) (HPC), higher = larger tumour): 53 % of control and 370 % of control | T/C (endpoint: median tumor weight (est.), dose: 75.0 mg/kg/injection, schedule: Q01DX009 (ip), vehicle: Klucel (hydroxypropylcellulose) (HPC), higher = larger tumour): 74 % of control and 278 % of control

C1CN1c1nc(N2CC2)nc(N2CC2)n1
T/C (endpoint: median tumor weight (est.), dose: 0.13 mg/kg/injection, schedule: Q01DX009 (ip), vehicle: saline, higher = larger tumour): 77 % of control and 484 % of control | T/C [6]: 50 % of control and 504 % of control | T/C [7]: 75 % of control and 156 % of control | T/C (endpoint: median tumor weight (est.), dose: 0.5 mg/kg/injection, schedule: Q08DX002 (ip), vehicle: saline, higher = larger tumour): 99 % of control and 492 % of control | T/C (endpoint: median tumor weight (est.), dose: 1.0 mg/kg/injection, schedule: Q08DX002 (ip), vehicle: saline, higher = larger tumour): 63 % of control and 363 % of control | T/C (endpoint: median tumor weight (est.), dose: 2.0 mg/kg/injection, schedule: Q08DX002 (ip), vehicle: saline, higher = larger tumour): 64 % of control and 591 % of control

Cc1c(N)nc([C@H](CC(N)=O)NC[C@H](N)C(N)=O)nc1C(=O)N[C@H](C(=O)N[C@H](C)[C@@H](O)[C@H](C)C(=O)N[C@H](C(=O)NCCc1nc(-c2nc(C(=O)NCCC[S+](C)C)cs2)cs1)[C@@H](C)O)C(OC1OC(CO)C(O)C(O)C1OC1OC(CO)C(O)C(OC(N)=O)C1O)c1cnc[nH]1 (some centres not stated)
T/C (endpoint: median tumor weight (est.), dose: 2.0 mg/kg/injection, schedule: Q01DX009 (ip), vehicle: water, higher = larger tumour): 20 % of control and 97 % of control | T/C (endpoint: median tumor weight (est.), dose: 3.0 mg/kg/injection, schedule: Q01DX009 (ip), vehicle: saline, higher = larger tumour): 11 % of control, 26 % of control, 40 % of control | T/C (endpoint: median tumor weight (est.), dose: 4.0 mg/kg/injection, schedule: Q01DX009 (ip), vehicle: water, higher = larger tumour): 14 % of control and 60 % of control | T/C (endpoint: median tumor weight (est.), dose: 6.0 mg/kg/injection, schedule: Q01DX009 (ip), vehicle: saline, higher = larger tumour): 28 % of control and 57 % of control

CN(Cc1cnc2nc(N)nc(N)c2n1)c1ccc(C(=O)N[C@@H](CCC(=O)O)C(=O)O)cc1
T/C [7]: 40 % of control and 94 % of control | T/C [3]: 62 % of control and 192 % of control | T/C [4]: 51 % of control and 170 % of control | T/C (endpoint: median tumor weight (est.), dose: 4.0 mg/kg/injection, schedule: Q01DX009 (ip), vehicle: saline, higher = larger tumour): 81 % of control and 192 % of control

CC[C@]1(O)C[C@H]2CN(CCc3c([nH]c4ccccc34)[C@@](C(=O)OC)(c3cc4c(cc3OC)N(C=O)[C@H]3[C@@](O)(C(=O)OC)[C@H](OC(C)=O)[C@]5(CC)C=CCN6CC[C@]43[C@@H]65)C2)C1
T/C [6]: 36 % of control, 73 % of control, 513 % of control | T/C [7]: 26 % of control, 38 % of control, 99 % of control

O=NN(CCCl)C(=O)NC1CCCCC1
T/C [5]: 47 % of control, 49 % of control, 585 % of control | T/C (endpoint: median tumor weight (est.), dose: 12.0 mg/kg/injection, schedule: Q01DX001 (ip), vehicle: Klucel (hydroxypropylcellulose) (HPC), higher = larger tumour): 72 % of control and 589 % of control
